# Reference: patent publication US11767302B2, “Reagents and methods for tetrazine synthesis” (University of Delaware, priority 2020, dated 2023)
# Conditions: from DSC profile
smiles,measurement,value
"Cc1nnc(SCc2ccc(-c3ccccc3)cc2)nn1 [b-Tz, 3-([1,1′-biphenyl]-4-ylmethylthio)-6-methyl-1,2,4,5-tetrazine]",shock sensitivity / explosivity flag by modified Yoshida correlation,not flagged as potentially shock sensitive or explosive
